In all, about 33,000 sequences were measured (“E-score (-0.5 to 0.5)”: median about -0.021, highest 2% from about 0.32 on). This is one part of the list.
Target: T1, Zap1 (UniProt P47043)
T1 sequence: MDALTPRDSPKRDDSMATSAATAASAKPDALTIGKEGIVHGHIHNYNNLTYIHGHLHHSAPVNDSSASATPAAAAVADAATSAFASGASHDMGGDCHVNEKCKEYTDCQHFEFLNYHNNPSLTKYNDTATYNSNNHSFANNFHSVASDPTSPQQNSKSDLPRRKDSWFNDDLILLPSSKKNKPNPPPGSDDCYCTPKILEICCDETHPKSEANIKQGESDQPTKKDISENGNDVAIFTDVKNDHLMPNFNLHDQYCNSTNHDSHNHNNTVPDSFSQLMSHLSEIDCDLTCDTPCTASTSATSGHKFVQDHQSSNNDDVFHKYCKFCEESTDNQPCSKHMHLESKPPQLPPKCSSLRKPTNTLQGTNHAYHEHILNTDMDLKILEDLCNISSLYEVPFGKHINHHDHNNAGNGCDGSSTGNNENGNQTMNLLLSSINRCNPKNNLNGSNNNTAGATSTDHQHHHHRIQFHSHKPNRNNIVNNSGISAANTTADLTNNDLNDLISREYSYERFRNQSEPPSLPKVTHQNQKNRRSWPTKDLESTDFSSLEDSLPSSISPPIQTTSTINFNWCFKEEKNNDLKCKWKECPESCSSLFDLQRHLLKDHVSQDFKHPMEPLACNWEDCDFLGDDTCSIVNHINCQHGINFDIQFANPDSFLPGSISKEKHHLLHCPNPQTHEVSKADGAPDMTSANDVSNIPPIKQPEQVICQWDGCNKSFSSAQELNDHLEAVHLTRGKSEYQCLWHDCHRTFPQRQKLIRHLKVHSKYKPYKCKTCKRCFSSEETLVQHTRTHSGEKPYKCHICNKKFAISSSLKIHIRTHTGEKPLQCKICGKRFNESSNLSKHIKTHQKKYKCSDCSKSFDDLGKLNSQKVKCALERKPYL
Test: PBM E-score (8-mer binding enrichment) (E-score (-0.5 to 0.5)); higher = stronger / more preferred TF binding; most listed sequences are background and not binding sites
Conditions: protein concentration: 200 nM; construct: GST-full length
Summary of the method: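 Each ungapped eight-base word and its reverse complement, pooled, received an E-score from the Universal PBM Analysis Suite. Underlying scans, normalised with masliner, recorded fluorescent anti-GST bound to GST-tagged yeast transcription factors. These were applied at about 100-200 nM to universal all-10-mer Agilent arrays double-stranded by primer extension.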

Row | Sequence | PBM E-score
1 | AAAACAGC | 0.0542
2 | CACCCCCC | -0.327
3 | CCCCGGTA | 0.153
4 | ACGGAGTC | -0.138
5 | ATATCCGA | 0.0812
6 | AGTATCCG | -0.013
7 | AACCCTAG | 0.408
8 | TGTCGCAA | 0.0209
9 | GTCCGATA | -0.0741
10 | CACGGACC | 0.0552
11 | CCGTAGTC | -0.127
12 | GAGCTGGC | -0.332
13 | GAATGAGC | -0.245
14 | GAGGACGC | -0.14
15 | AAACCTCA | 0.232
16 | AAACGACC | 0.279
17 | ATTGTGGC | 0.0557
18 | CGTCCAGC | -0.203
19 | GCATGAGC | -0.216
20 | ACACAGGA | -0.0851
21 | AAGGCACA | 0.0928
22 | ACGTCAAG | -0.0142

Row | Sequence | PBM E-score
23 | GGTCATAA | 0.379
24 | CCTCCCCC | -0.293
25 | AGTGCCCC | -0.156
26 | CATCGAGG | 0.00089
27 | GTGCTCAA | 0.0499
28 | ACCCACTA | 0.213
29 | ACGTGAAA | 0.194
30 | ATCATGAT | 0.219
31 | CGCCATTC | -0.0351
32 | TAGGGTAA | 0.396
33 | GGCGCGAC | 0.205
34 | AGAAAGTA | 0.0344
35 | AAATGCCA | -0.122
36 | CCGTGCAC | -0.153
37 | AAGCGCAG | -0.198
38 | ACGTGTAA | -0.0731
39 | CAAGGACC | 0.14
40 | CATTACCA | 0.175
41 | AGGCGGGG | -0.0391
42 | ATCCTCCC | -0.257
43 | TCTCTCCA | -0.192
44 | TCCCAGAA | -0.00682

Row | Sequence | PBM E-score
45 | ACACTGTA | 0.0229
46 | CCTTACTA | 0.118
47 | ATATTCGA | -0.0965
48 | ATTATTTA | 0.234
49 | AGCGTACC | -0.139
50 | GTATGCGA | 0.11
51 | TCGCCTCA | -0.171
52 | CCCGAATC | -0.109
53 | GATGTTAA | 0.0418
54 | CTCCGTTA | -0.0919
55 | AATCAATC | 0.12
56 | ACAGATAA | 0.0935
57 | CGTGGAAC | -0.167
58 | ATTGTGGA | -0.0425
59 | ACGTGAAC | -0.0284
60 | CAGATGCC | -0.27
61 | CCATTCAG | 0.0149
62 | CGCGGGCC | -0.0117
63 | GACGGGGA | -0.224
64 | ATGTAGTC | -0.18
65 | CGGAGTAC | -0.03
66 | GGTAACCA | 0.461

Row | Sequence | PBM E-score
67 | CACTACAG | 0.00506
68 | TGATCCCA | 0.0037
69 | GCTTTGAA | 0.0384
70 | AAAAGCCA | -0.00611
71 | TAGTACAA | 0.0452
72 | CCCGCAGG | 0.185
73 | CCCGTGAG | 0.194
74 | CACTTCTA | -0.108
75 | AAGAACGA | 0.193
76 | CTGATCAC | -0.013
77 | AAAGGCTG | -0.0396
78 | CATCGGGG | -0.147
79 | ACGTCAGG | -0.204
80 | CGCACTTA | -0.0155
81 | TCGGTACA | -0.0214
82 | AGGTCCTA | 0.0953
83 | GCTTGGTA | 0.0544
84 | CATGGTAC | 0.22
85 | GGATGGGA | -0.0992
86 | GTGCTGGA | -0.169

Source: the supplement of paper PMC3334620
